According to PubChem BioAssay AID687022 (Broad Institute, 2013):
Among all 1,000 compounds or so, about 360 (36%) were called active.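 The calls were made as follows: active = Fitted curve of melting temperature shift crosses the 1.0 threshold at or below the sample's highest valid tested concentration; inconclusive = Flat fit with activity 30 to 70, or invalid fit; inactive = Opposite direction, flat within 30, or no crossing.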 The list lacks most of the strong results. Square brackets hold non-standard residues; d marks the D form. Peptide text beside a SMILES is read from it. * marks the point of attachment. ξ: configuration not given here. ξArg(NO2) = N=C(NCCCC(N)C(=O)O)N[N+](=O)[O-]; Bz = O=C(c1ccccc1)*

biological target: Fibroblast growth factor 22 (Homo sapiens) (UniProt Q9HCT0); assay: FGF22 ligand-induced thermal stabilization – biophysical, thermal shift, cherry-pick, FGF22 synaptogenesis inhibitor project, dose response (AID 687022); conditions: recombinant FGF22 thermal shift, SYPRO orange melting; at 38 µM (top of the series) unless noted; also: reference of the scale not given here
UniProt Q9HCT0, sequence (Q9HCT0 whole entry, looked up): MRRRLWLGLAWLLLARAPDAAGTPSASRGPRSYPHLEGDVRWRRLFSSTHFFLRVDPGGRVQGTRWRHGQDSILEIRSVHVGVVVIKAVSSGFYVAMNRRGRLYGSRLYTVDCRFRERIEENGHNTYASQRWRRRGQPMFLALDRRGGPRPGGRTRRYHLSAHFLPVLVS

| SMILES | Tm shift activity |
| --- | --- |
| CC(=O)Nc1ccc(S(=O)(=O)N2Cc3ccccc3-n3nncc3C2)cc1 | inactive: -0.297% |
| C/C=C/c1ccc([C@@H]2[C@H]3CN(C(=O)Cc4ccncc4)CCCCN3[C@H]2CO)cc1 | inactive: -0.193% |
| CN(C)Cc1c[nH]c2ccccc12 | inactive: -0.319% |
| CC=Cc1ccc2n(c1=O)C[C@H]1[C@H](CO)[C@@H](C(=O)N(C)C)N[C@@H]21 (mixture of isomers) | inactive: -0.052% |
| COc1cccc(-c2ccc([C@@H]3[C@@H](CO)N4CCCCN(C(=O)Cc5ccncc5)C[C@@H]34)cc2)c1 | inactive: -0.031% [at 42 µM] |
| N/C(=N\[N+](=O)[O-])NCCCC(NC(=O)CNC(=O)c1ccccc1)C(=O)O (configuration not stated) (Bz-Gly-[ξArg(NO2)]-OH) | inactive: -0.126% |
| Cc1cc(OCC(=O)NC(Cc2ccc(Cl)cc2)C(=O)O)c2c3c(c(=O)oc2c1)CCC3 (configuration not stated) | inactive: 14.7% [at 19.5 µM] |
| OC(CNCCc1c[nH]c2ccccc12)c1ccccc1 (configuration not stated) | inactive: -0.172% |
| O=C(Nc1ccccc1)c1cccn(Cc2ccccc2)c1=O | inactive: 0.189% |
| Cc1ccc(S(=O)(=O)N(C)C[C@H]2Oc3cc(Br)ccc3S(=O)(=O)N([C@H](C)CO)C[C@@H]2C)cc1 | inactive: 0.593% |
| O=C(c1cccc2ccccc12)C1CCCN(Cc2ccon2)C1 (configuration not stated) | inactive: -0.15% |
| O=C(NCCN1CCC2(CC1)C(=O)NCN2c1ccccc1)c1ccc2ccccc2c1 | inactive: -0.261% |
